Measurements: the supplement of paper PMC3334620
The full ranking holds about 33,000 sequences; the median of “E-score (-0.5 to 0.5)” is about -0.035, and the highest 2% start at about 0.34. This is one part of the list.

Molecular target: T1, Mot3 (UniProt P54785)
T1 sequence: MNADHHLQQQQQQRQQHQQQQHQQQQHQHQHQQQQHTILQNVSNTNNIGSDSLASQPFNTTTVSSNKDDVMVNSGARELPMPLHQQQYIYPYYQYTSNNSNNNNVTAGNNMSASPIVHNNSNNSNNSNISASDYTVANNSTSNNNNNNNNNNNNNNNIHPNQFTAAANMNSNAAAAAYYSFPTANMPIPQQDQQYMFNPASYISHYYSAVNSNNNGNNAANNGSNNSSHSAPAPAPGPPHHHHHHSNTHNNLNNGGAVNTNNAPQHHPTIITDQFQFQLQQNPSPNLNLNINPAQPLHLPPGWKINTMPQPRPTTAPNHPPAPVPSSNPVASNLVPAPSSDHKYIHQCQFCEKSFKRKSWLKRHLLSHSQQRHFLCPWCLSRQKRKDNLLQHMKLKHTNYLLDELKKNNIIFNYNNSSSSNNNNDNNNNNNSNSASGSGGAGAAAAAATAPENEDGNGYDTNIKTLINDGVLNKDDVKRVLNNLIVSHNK
Experiment: PBM E-score (8-mer binding enrichment) (E-score (-0.5 to 0.5)); higher = stronger / more preferred TF binding; most listed sequences are background and not binding sites
Details: protein concentration: 200 nM; construct: GST-full length
Experimental: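 Universal 'all 10-mer' protein binding microarrays (Agilent AMADID 015681) probed with GST-tagged S. cerevisiae TFs (full-length or DBD) made by in vitro transcription/translation (PURExpress), about 100-200 nM. Bound TF was detected with fluorescent anti-GST. Each ungapped 8-mer (which stands for itself and its reverse complement) is scored by the PBM enrichment score (E-score), a modified Wilcoxon-Mann-Whitney statistic from -0.5 to +0.5, computed with the Universal PBM Analysis Suite. Scale: above 0.35 generally sequence-specific binding.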

| Sequence | PBM E-score |
| --- | --- |
| GAACGCAA | 0.041 |
| ACCAGCGT | -0.0988 |
| CCCAATCG | -0.208 |
| GATGATAA | 0.0113 |
| AACTGAGA | -0.0277 |
| ATTCAAGG | 0.0502 |
| GGGCAACA | 0.145 |
| CACAAGCA | 0.189 |
| AGAAGTTA | 0.0384 |
| AGGCCCGG | -0.0971 |
| CCCCCGAG | -0.352 |
| AGCGTACA | 0.0513 |
| ATCATGGG | -0.0935 |
| ATCACGCG | 0.05 |
| AAGGGCCC | -0.307 |
| AAAAGGTG | 0.127 |
| ATACTAGG | -0.00956 |
| CGGACGGA | -0.133 |
| GGGGTTAA | -0.0764 |
| CACGTCCG | -0.179 |
| AGAGTTTA | 0.116 |
| AGAGACAT | 0.0131 |
| AGTGACGA | 0.00248 |
| ACAATTAG | 0.00046 |
| CCCGCACC | -0.318 |

| Sequence | PBM E-score |
| --- | --- |
| GATCATCC | -0.216 |
| ATGTTCCG | -0.00735 |
| AACCGGAT | 0.0805 |
| ACAAGGCC | 0.0968 |
| CTTATACA | 0.199 |
| AGCTGGAT | -0.15 |
| CTGATTTA | 0.129 |
| GGTAAGAC | -0.126 |
| CTCAAATA | -0.0121 |
| GAGTGTAC | 0.0789 |
| GTAGCACA | -0.0448 |
| AAACTGGT | -0.188 |
| CCTTGAAC | 0.197 |
| GACACTGA | -0.101 |
| ACCAATCC | -0.0847 |
| CGTCCCCC | -0.235 |
| ACGGTGTA | 0.225 |
| AGTCGTTA | -0.143 |
| GCGGAAAC | -0.334 |
| CCTTGTTA | 0.24 |
| ATACCATC | 0.0128 |
| ATCTGATG | -0.2 |
| ATAATCGG | 0.0441 |
| ACTCCTCG | -0.0921 |
| ACAGTGCG | -0.0961 |

| Sequence | PBM E-score |
| --- | --- |
| GAGCGATA | -0.198 |
| CTAGTTGC | 0.0541 |
| AAGAATAT | -0.0497 |
| GCGCACAA | 0.104 |
| GACTACAA | 0.0845 |
| ACGAGCGA | 0.00046 |
| CAGGAGGA | -0.0317 |
| GAATGGCA | -0.153 |
| ATCTCGAC | 0.0161 |
| CGCAGATA | -0.072 |
| GTATCTAA | 0.105 |
| TCCGTACA | 0.0405 |
| GAACATAC | 0.248 |
| ACAAAAAC | 0.143 |
| GGCAACAC | 0.286 |
| AGGCAGTA | 0.108 |
| TAACGAAA | 0.0665 |
| ACTCCCCC | -0.243 |
| ACTTGAAC | 0.0546 |
| GTGACGCA | -0.125 |
| AAGTATAC | 0.0723 |
| ACGTCTGG | -0.00636 |
| CACTAATG | -0.0604 |
| ACCAGTCT | -0.195 |
| ACTCTTCA | 0.0297 |

| Sequence | PBM E-score |
| --- | --- |
| ACCGGTTG | -0.184 |
| CGTCTCTC | -0.12 |
| CACAGCGA | 0.0949 |
| CCGTTACC | 0.0706 |
| ATACGCTA | -0.062 |
| AGACGGAG | -0.238 |
| GATATGAA | 0.0169 |
| GTCGAATA | -0.052 |
| CATAATGG | -0.289 |
| ATCTTAGA | -0.123 |
| ATTATGTA | 0.339 |
| AAACGAAG | 0.104 |
| CGACGTTC | -0.126 |
| GATCAAAA | -0.165 |
| GCGACTCC | -0.251 |
| TGTCATAA | 0.246 |
| CTCTGCAA | -0.0788 |
| ATTCCTAA | 0.105 |
| TGGCTAAA | -0.141 |
| GTAAAAAA | 0.262 |
| GTGCGCCA | -0.267 |
| AACACGGC | 0.257 |
| AGTCTGGG | -0.187 |
| AACTCTTG | 0.0424 |
| ATAAGGCC | -0.142 |

| Sequence | PBM E-score |
| --- | --- |
| AGCAATGC | -0.16 |
| AGTCGATA | -0.136 |
| AGATGGGA | -0.204 |
| AGACAGAT | -0.0373 |
| CGTAACAG | 0.0994 |
| ACGGGGAG | -0.244 |
| ATTCAAAG | -0.117 |
| CGCGGGTC | 0.069 |
| ATCATGCG | -0.103 |
| ATCCTACA | 0.134 |
| CGCAAGGC | 0.12 |
| CGGAGCAC | -0.102 |
| CAGACCTA | -0.0525 |
| AACTCCGC | -0.187 |
| CAACGACA | 0.139 |
| CCTTAGTA | 0.0101 |
| AGTTCGAG | -0.0327 |
| AAATTCAC | 0.0912 |
| GGGCGCAA | -0.0882 |
| GGATTATA | -0.0989 |
| AACGTCAC | -0.037 |
| ATGATCCC | -0.289 |
| CACCGAAG | -0.0379 |
| GATAAATA | 0.0383 |
| GGCTAAAC | -0.0443 |

| Sequence | PBM E-score |
| --- | --- |
| TGGTTGAA | -0.00559 |
| GGATCACA | 0.0449 |
| AGAGATGG | 0.0575 |
| ACAAATCA | 0.0837 |
| GTGATAAC | 0.109 |
| TAGAGAGA | -0.0698 |
| CCCCAGGG | -0.192 |
| CTCCAACC | 0.0855 |
| CGGTTCTA | -0.141 |
| ATGCCCAC | -0.15 |
| CAATTGCC | 0.175 |
| GCGTCGCC | -0.0655 |
| CACCGCCA | -0.135 |
| CAACCAAG | -0.047 |
| CGGGGGCA | -0.202 |
| CAAAAACG | 0.152 |
| CTCGAAAA | -0.084 |
| AAACCCTA | -0.01 |
| ACCTCTGG | -0.0514 |
| CAGACCCC | -0.255 |
| ACATGAGC | 0.24 |
| GAACGATA | -0.00294 |
| AGTAACAG | 0.0866 |
| GACGAATC | -0.0626 |
| CGCTCATA | -0.225 |

| Sequence | PBM E-score |
| --- | --- |
| AGATACCC | -0.164 |
| AAGCCCGG | -0.302 |
| TACGCCGA | -0.0818 |
| GGTACCGA | 0.00801 |
| CACAGCTG | -0.0873 |
| CTCACGGC | -0.0783 |
| ATTGTACC | 0.0661 |
| AGTCTTAG | -0.168 |
| CAGTTAGG | 0.0993 |
| GGCACTTA | 0.282 |
| AAATAGGG | 0.16 |
| CGCACTGC | -0.0709 |
| AAATTTAC | 0.291 |
| GAAAAACC | 0.0532 |
| CTCGGTGC | -0.0378 |
| AACCATCG | 0.114 |
| AGCTCAGC | -0.206 |
| AAGCGGGG | -0.0612 |
| CGTTTAAG | 0.0675 |
| ACGCAGGG | 0.158 |
| GTGAATCA | 1e-05 |
| AACTGTAC | -0.0246 |
